B1: PRD-932 (Fc fusion)
chain: [no letters for human IgG1 Fc with changes and a few adjoining residues]GGGGSGGVSDVPRDLEVVAATPTSLLISWSLPYAGHLNYYRITYGETGGNSPVQEFTVPGRGVTATISGLKPGVDYTITVYAVTLTKSQLIHYMPISINYRTEI
notes: Fc-linker-Adnectin (2525_D05); bivalent Fc
B2: PRD-1173 (Fc fusion)
chain: GVSDVPRDLEVVAATPTSLLISWTLPHAGRAHYYRITYGETGGNSPVQEFTVPGRGVTATISGLKPGVDYTITVYAVTVTTTKVIHYKPISINYRTEI[no letters for human IgG1 Fc]
notes: Adnectin (2987_H07)-linker-Fc
B3: PRD-1288 (Fc fusion)
chain: [no letters for human IgG1 Fc and a few adjoining residues]QLEESAAEAQDGELDGVSDVPRDLEVVAATPTSLLISWSLPHQGKANYYRITYGETGGNSPVQEFTVPGRGVTATISGLKPGVDYTITVYAVTVTDTGYLKYKPISINYRTEI
B4: PRD-1177 (Fc fusion)
chain: [no letters for human IgG1 Fc and a few adjoining residues]QLEESAAEAQDGELDGVSDVPRDLEVVAATPTSLLISWTLPHAGRAHYYRITYGETGGNSPVQEFTVPGRGVTATISGLKPGVDYTITVYAVTVTTTKVIHYKPISINYRTEI
notes: Fc-linker-Adnectin (2987_H07)
B5: PRD-1287 (Fc fusion)
chain: [no letters for human IgG1 Fc and a few adjoining residues]QLEESAAEAQDGELDGVSDVPRDLEVVAATPTSLLISWSLPNPGNAHYYRITYGETGGNSPVQEFTVPGRGVTATISGLKPGVDYTITVYAVTVTDTGFITYKPISINYRTEI
notes: Fc-linker-Adnectin (3146_A08)
B6: PRD-1471 (Fc fusion)
chain: [no letters for human IgG1 Fc and a few adjoining residues]QLEESAAEAQEGELEGVSDVPRDLEVVAATPTSLLISWTLPHAGRAHYYRITYGETGGNSPVQEFTVPGRGVTATISGLKPGVDYTITVYAVTVTTTKVIHYKPISINYRTEI
notes: Fc-linker-Adnectin (2987_H07)
B7: PRD-1474 (Fc fusion)
chain: [no letters for human IgG1 Fc and a few adjoining residues]QLEESAAEAQEGELEGVSDVPRDLEVVAATPTSLLISWSLPHQGKANYYRITYGETGGNSPVQEFTVPGRGVTATISGLKPGVDYTITVYAVTVTDTGYLKYKPISINYRTEI
B8: PRD-1174 (Fc fusion)
chain: GVSDVPRDLEVVAATPTSLLISWTLPHAGRAHYYRITYGETGGNSPVQEFTVPGRGVTATISGLKPGVDYTITVYAVTVTTTKVIHYKPISINYRTEIESPKAQASSVPTAQPQAEGL[no letters for human IgG1 Fc]
notes: Adnectin (2987_H07)-linker-Fc
B9: PRD-1285 (Fc fusion)
chain: [no letters for human IgG1 Fc and a few adjoining residues]QLEESAAEAQDGELDGVSDVPRDLEVVAATPTSLLISWDAPAGLARYYRITYGETGGNSPVQEFTVVGRGNTATISGLKPGVDYTITVYAVTIFRDGPVTWDPISINYRTEI
notes: Fc-linker-Adnectin (3115_E06)
B10: PRD-1284 (Fc fusion)
chain: [no letters for human IgG1 Fc and a few adjoining residues]QLEESAAEAQDGELDGVSDVPRDLEVVAATPTSLLISWDAPRGLARYYRITYGETGGNSPVQEFTVFGRGTTATISGLKPGVDYTITVYAVTIDRDGTRSFDPISINYRTEI
notes: Fc-linker-Adnectin (3115_D04)
B11: PRD-1286 (Fc fusion)
chain: [no letters for human IgG1 Fc and a few adjoining residues]QLEESAAEAQDGELDGVSDVPRDLEVVAATPTSLLISWDAPKGLARYYRITYGETGGNSPVQEFTVVGRGNTATISGLKPGVDYTITVYAVTIFRDGPVTWDPISINYRTEI
B12: PRD-1473 (Fc fusion)
chain: [no letters for human IgG1 Fc and a few adjoining residues]QLEESAAEAQEGELEGVSDVPRDLEVVAATPTSLLISWDAPKGLARYYRITYGETGGNSPVQEFTVVGRGNTATISGLKPGVDYTITVYAVTIFRDGPVTWDPISINYRTEI
B13: PRD-1472 (Fc fusion)
chain: [no letters for human IgG1 Fc and a few adjoining residues]QLEESAAEAQEGELEGVSDVPRDLEVVAATPTSLLISWDAPAGLARYYRITYGETGGNSPVQEFTVVGRGNTATISGLKPGVDYTITVYAVTIFRDGPVTWDPISINYRTEI
notes: Fc-linker-Adnectin (3115_E06)
B14: PRD-1178 (Fc fusion)
chain: [no letters for human IgG1 Fc]PDEPGGSGVSDVPRDLEVVAATPTSLLISWTLPHAGRAHYYRITYGETGGNSPVQEFTVPGRGVTATISGLKPGVDYTITVYAVTVTTTKVIHYKPISINYRTEI
notes: Fc-linker-Adnectin (2987_H07)
B15: PRD-1302 (Fc fusion)
chain: GVSDVPRDLEVVAATPTSLLISWDAPAGLARYYRITYGETGGNSPVQEFTVVGRGNTATISGLKPGVDYTITVYAVTIFRDGPVTWDPISINYRTEI[no letters for human IgG1 Fc with changes]
notes: Adnectin (3115_E06)-linker-Fc
B16: PRD-1301 (Fc fusion)
chain: GVSDVPRDLEVVAATPTSLLISWDAPRGLARYYRITYGETGGNSPVQEFTVFGRGTTATISGLKPGVDYTITVYAVTIDRDGTRSFDPISINYRTEI[no letters for human IgG1 Fc with changes]
notes: Adnectin (3115_D04)-linker-Fc
B17: PRD-1303 (Fc fusion)
chain: GVSDVPRDLEVVAATPTSLLISWDAPKGLARYYRITYGETGGNSPVQEFTVVGRGNTATISGLKPGVDYTITVYAVTIFRDGPVTWDPISINYRTEI[no letters for human IgG1 Fc with changes]
B18: PRD-1175 (Fc fusion)
chain: [no letters for human IgG1 Fc]GGGGSGGVSDVPRDLEVVAATPTSLLISWTLPHAGRAHYYRITYGETGGNSPVQEFTVPGRGVTATISGLKPGVDYTITVYAVTVTTTKVIHYKPISINYRTEI
notes: Fc-linker-Adnectin (2987_H07)
B19: PRD-1304 (Fc fusion)
chain: GVSDVPRDLEVVAATPTSLLISWSLPNPGNAHYYRITYGETGGNSPVQEFTVPGRGVTATISGLKPGVDYTITVYAVTVTDTGFITYKPISINYRTEI[no letters for human IgG1 Fc with changes]
notes: Adnectin (3146_A08)-linker-Fc
B20: PRD-1305 (Fc fusion)
chain: GVSDVPRDLEVVAATPTSLLISWSLPHQGKANYYRITYGETGGNSPVQEFTVPGRGVTATISGLKPGVDYTITVYAVTVTDTGYLKYKPISINYRTEI[no letters for human IgG1 Fc with changes]
B21: PRD-1171 (Fc fusion)
chain: GVSDVPRDLEVVAATPTSLLISWTLPHAGRAHYYRITYGETGGNSPVQEFTVPGRGVTATISGLKPGVDYTITVYAVTVTTTKVIHYKPISINYRTEI[no letters for human IgG1 Fc with changes]
notes: Adnectin (2987_H07)-linker-Fc
B22: PRD-1180 (Fc fusion)
chain: [no letters for human IgG1 Fc]SGSGSGSGSGSGVSDVPRDLEVVAATPTSLLISWTLPHAGRAHYYRITYGETGGNSPVQEFTVPGRGVTATISGLKPGVDYTITVYAVTVTTTKVIHYKPISINYRTEI
notes: Fc-linker-Adnectin (2987_H07)

Target: T1, human myostatin (mature, recombinant; R&D Systems) (human, UniProt O14793 267-375)
T1 construct: biotinylated in the mRNA display selection; also called GDF-8; mature myostatin
T1 sequence: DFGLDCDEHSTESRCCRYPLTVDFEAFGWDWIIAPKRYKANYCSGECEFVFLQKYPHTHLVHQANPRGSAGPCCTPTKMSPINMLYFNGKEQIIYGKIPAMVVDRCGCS
Experiment: SPR format B, 25C

B1 showed a Kd of 1.43 nM.

Target: T2, human Activin A (R&D Systems) (human, UniProt P08476 311-426)
T2 sequence (looked up): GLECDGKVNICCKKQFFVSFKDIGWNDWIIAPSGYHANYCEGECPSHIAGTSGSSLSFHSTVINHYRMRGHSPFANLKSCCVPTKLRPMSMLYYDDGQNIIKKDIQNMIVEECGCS
Experiment: cell-based or functional assay

Going from B2 to B3, the “ARE-luciferase IC50” value rises from 6 nM to > 1000 nM.

Going from B4 to B5, the “ARE-luciferase IC50” value rises from 21 nM to > 1000 nM.

Compared with B6, B7 is higher in “ARE-luciferase IC50” value: 60 nM for the first, > 1000 nM for the second.

Going from B8 to B9, the “ARE-luciferase IC50” value rises from 4 nM to 216 nM (54-fold).

First: B10
Second: B11
The “ARE-luciferase IC50” value of the first is 2.1-fold lower: 44 nM for the first, 94 nM for the second.

First: B12
Second: B13
The “ARE-luciferase IC50” value of the first is 8-fold lower: 125 nM for the first, 1000 nM for the second.

B14 and B15 are within 1.5-fold of each other in “ARE-luciferase IC50” value: 16 nM for the first, 14 nM for the second.

First: B16
Second: B17
The “ARE-luciferase IC50” value of the first is 21-fold lower: 15 nM for the first, 314 nM for the second.

Going from B18 to B19, the “ARE-luciferase IC50” value rises from 19 nM to 45 nM (2.4-fold).

Compared with B20, B21 is 5.9-fold lower in “ARE-luciferase IC50” value: 113 nM for the first, 19 nM for the second.

For B22, the “ARE-luciferase IC50” value was 14 nM.

Target: T3, human BMP-11 (GDF-11; R&D Systems) (human, UniProt O95390 299-407)
T3 sequence (looked up): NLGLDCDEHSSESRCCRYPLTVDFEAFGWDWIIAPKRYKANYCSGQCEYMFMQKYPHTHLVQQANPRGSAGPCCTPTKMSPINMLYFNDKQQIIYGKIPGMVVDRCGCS
Experiment: cell-based or functional assay

B2 and B3 are the same in “ARE-luciferase IC50” value: 0.1 nM for the first, 0.1 nM for the second.

Going from B4 to B5, the “ARE-luciferase IC50” value rises from 0.28 nM to 0.8 nM (2.9-fold).

First: B6
Second: B8
The “ARE-luciferase IC50” value of the first is 1.6-fold higher: 0.16 nM for the first, 0.1 nM for the second.

B9 and B10 are within 1.5-fold of each other in “ARE-luciferase IC50” value: 0.03 nM for the first, 0.04 nM for the second.

Going from B11 to B12, the “ARE-luciferase IC50” value falls from 0.11 nM to 0.06 nM (1.8-fold).

Going from B13 to B14, the “ARE-luciferase IC50” value rises from 0.05 nM to 0.25 nM (5-fold).

First: B15
Second: B16
The “ARE-luciferase IC50” value of the first is 3-fold lower: 0.02 nM for the first, 0.06 nM for the second.

Going from B17 to B18, the “ARE-luciferase IC50” value rises from 0.03 nM to 0.28 nM (9.3-fold).

B19 and B20 are the same in “ARE-luciferase IC50” value: 0.07 nM for the first, 0.07 nM for the second.

Going from B21 to B22, the “ARE-luciferase IC50” value falls from 0.2 nM to 0.11 nM (1.8-fold).

Target: T1, human myostatin (mature, recombinant; …)
Experiment: cell-based or functional assay

For B1, the “ARE-luciferase IC50” value was 0.24 nM.

Source: US20170088602A1 (Bristol-Myers Squibb, published 2017)
